Data taken from the supplement of paper PMC11876631.
± gives the standard deviation of the averaged measurements. Laboratory Escherichia coli strains with one amino-acid change in an essential protein, pooled on minimal glucose agar with carbenicillin or gentamicin at twice the control MIC (plus kanamycin and chloramphenicol for the plasmids), 48 h. Fold change of barcode share against drug-free plates; higher = less susceptible. Active = above 20 in both replicates (the paper's putatively resistant). '<' = one read or none on drug, '>' = one read or none on a drug-free plate. Shares are relative, so most strains fall below 1 when a few take over. Listed are strains with at least 15 reads on both drug-free plates, and hits; most hits rest on fewer reference reads. Replicate rank correlation about 0.5. Edits are read from barcodes.

Target: Escherichia coli (laboratory strain)
Assay: barcode share on antibiotic plates over drug-free plates; higher = less susceptible
Experimental: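 A pool of E. coli strains, each edited to carry one amino-acid change in an essential protein, was grown for 48 h on minimal glucose agar with or without antibiotic; strain barcodes were sequenced; mean of two replicates.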

[1] = antibiotic: carbenicillin, 2× MIC (3.1 µg/mL)
[2] = antibiotic: gentamicin, 2× MIC (MIC 0.45 µg/mL)

Protein	fold change of barcode share [1]	fold change of barcode share [2]
trmD L67A (protein) MWIGIISLFPEMFRAITDYGVTGRAVKNGLLSIQSWSPRDFTHDRHRTVDDRPYGGGPGMLMMVQPARDAIHAAKAAAGEGAKVIYLSPQGRKLDQAGVSELATNQKLILVCGRYEGIDERVIQTEIDEEWSIGDYVLSGGELPAMTLIDSVSRFIPGVLGHEASATEDSFAEGLLDCPHYTRPEVLEGMEVPPVLLSGNHAEIRRWRLKQSLGRTWLRRPELLENLALTEEQARLLAEFKTEHAQQQHKHDGMA	0.321 ± 0.16	0.00439 ± 0.0018
trmD L67W (protein) MWIGIISLFPEMFRAITDYGVTGRAVKNGLLSIQSWSPRDFTHDRHRTVDDRPYGGGPGMLMMVQPWRDAIHAAKAAAGEGAKVIYLSPQGRKLDQAGVSELATNQKLILVCGRYEGIDERVIQTEIDEEWSIGDYVLSGGELPAMTLIDSVSRFIPGVLGHEASATEDSFAEGLLDCPHYTRPEVLEGMEVPPVLLSGNHAEIRRWRLKQSLGRTWLRRPELLENLALTEEQARLLAEFKTEHAQQQHKHDGMA	0.229 ± 0.0063	< 0.00258
trmD L67Q (protein) MWIGIISLFPEMFRAITDYGVTGRAVKNGLLSIQSWSPRDFTHDRHRTVDDRPYGGGPGMLMMVQPQRDAIHAAKAAAGEGAKVIYLSPQGRKLDQAGVSELATNQKLILVCGRYEGIDERVIQTEIDEEWSIGDYVLSGGELPAMTLIDSVSRFIPGVLGHEASATEDSFAEGLLDCPHYTRPEVLEGMEVPPVLLSGNHAEIRRWRLKQSLGRTWLRRPELLENLALTEEQARLLAEFKTEHAQQQHKHDGMA	0.274 ± 0.062	0.00823 ± 0.00038
trmD L67P (protein) MWIGIISLFPEMFRAITDYGVTGRAVKNGLLSIQSWSPRDFTHDRHRTVDDRPYGGGPGMLMMVQPPRDAIHAAKAAAGEGAKVIYLSPQGRKLDQAGVSELATNQKLILVCGRYEGIDERVIQTEIDEEWSIGDYVLSGGELPAMTLIDSVSRFIPGVLGHEASATEDSFAEGLLDCPHYTRPEVLEGMEVPPVLLSGNHAEIRRWRLKQSLGRTWLRRPELLENLALTEEQARLLAEFKTEHAQQQHKHDGMA	1.46 ± 0.1	0.0467 ± 0.054
trmD L110A (protein) MWIGIISLFPEMFRAITDYGVTGRAVKNGLLSIQSWSPRDFTHDRHRTVDDRPYGGGPGMLMMVQPLRDAIHAAKAAAGEGAKVIYLSPQGRKLDQAGVSELATNQKLIAVCGRYEGIDERVIQTEIDEEWSIGDYVLSGGELPAMTLIDSVSRFIPGVLGHEASATEDSFAEGLLDCPHYTRPEVLEGMEVPPVLLSGNHAEIRRWRLKQSLGRTWLRRPELLENLALTEEQARLLAEFKTEHAQQQHKHDGMA	0.359 ± 0.12	< 0.00851
trmD I71W (protein) MWIGIISLFPEMFRAITDYGVTGRAVKNGLLSIQSWSPRDFTHDRHRTVDDRPYGGGPGMLMMVQPLRDAWHAAKAAAGEGAKVIYLSPQGRKLDQAGVSELATNQKLILVCGRYEGIDERVIQTEIDEEWSIGDYVLSGGELPAMTLIDSVSRFIPGVLGHEASATEDSFAEGLLDCPHYTRPEVLEGMEVPPVLLSGNHAEIRRWRLKQSLGRTWLRRPELLENLALTEEQARLLAEFKTEHAQQQHKHDGMA	0.342 ± 0.067	0.00668 ± 0.004
trmD I71Q (protein) MWIGIISLFPEMFRAITDYGVTGRAVKNGLLSIQSWSPRDFTHDRHRTVDDRPYGGGPGMLMMVQPLRDAQHAAKAAAGEGAKVIYLSPQGRKLDQAGVSELATNQKLILVCGRYEGIDERVIQTEIDEEWSIGDYVLSGGELPAMTLIDSVSRFIPGVLGHEASATEDSFAEGLLDCPHYTRPEVLEGMEVPPVLLSGNHAEIRRWRLKQSLGRTWLRRPELLENLALTEEQARLLAEFKTEHAQQQHKHDGMA	0.371 ± 0.093	–
trmD I71P (protein) MWIGIISLFPEMFRAITDYGVTGRAVKNGLLSIQSWSPRDFTHDRHRTVDDRPYGGGPGMLMMVQPLRDAPHAAKAAAGEGAKVIYLSPQGRKLDQAGVSELATNQKLILVCGRYEGIDERVIQTEIDEEWSIGDYVLSGGELPAMTLIDSVSRFIPGVLGHEASATEDSFAEGLLDCPHYTRPEVLEGMEVPPVLLSGNHAEIRRWRLKQSLGRTWLRRPELLENLALTEEQARLLAEFKTEHAQQQHKHDGMA	0.145 ± 0.11	< 0.0145
trmD L213Q (protein) MWIGIISLFPEMFRAITDYGVTGRAVKNGLLSIQSWSPRDFTHDRHRTVDDRPYGGGPGMLMMVQPLRDAIHAAKAAAGEGAKVIYLSPQGRKLDQAGVSELATNQKLILVCGRYEGIDERVIQTEIDEEWSIGDYVLSGGELPAMTLIDSVSRFIPGVLGHEASATEDSFAEGLLDCPHYTRPEVLEGMEVPPVLLSGNHAEIRRWRLKQSQGRTWLRRPELLENLALTEEQARLLAEFKTEHAQQQHKHDGMA	0.253 ± 0.054	< 0.00896
can L149A (protein) MKDIDTLISNNALWSKMLVEEDPGFFEKLAQAQKPRFLWIGCSDSRVPAERLTGLEPGELFVHRNVANLVIHTDLNCLSVVQYAVDVLEVEHIIICGHYGCGGVQAAVENPELGLINNWLLHIRDIWFKHSSLLGEMPQERRLDTLCEANVMEQVYNLGHSTIMQSAWKRGQKVTIHGWAYGIHDGLLRDLDVTATNRETLEQRYRHGISNLKLKHANHK	0.434 ± 0.053	0.0108 ± 0.0084
trpB M149A (protein) MTTLLNPYFGEFGGMYVPQILMPALRQLEEAFVSAQKDPEFQAQFNDLLKNYAGRPTALTKCQNITAGTNTTLYLKREDLLHGGAHKTNQVLGQALLAKRMGKTEIIAETGAGQHGVASALASALLGLKCRIYMGAKDVERQSPNVFRARLMGAEVIPVHSGSATLKDACNEALRDWSGSYETAHYMLGTAAGPHPYPTIVREFQRMIGEETKAQILEREGRLPDAVIACVGGGSNAIGMFADFINETNVGLIGVEPGGHGIETGEHGAPLKHGRVGIYFGMKAPMMQTEDGQIEESYSISAGLDFPSVGPQHAYLNSTGRADYVSITDDEALEAFKTLCLHEGIIPALESSHALAHALKMMRENPDKEQLLVVNLSGRGDKDIFTVHDILKARGEI	1.08 ± 0.89	0.00978 ± 0.0056
trpB M149W (protein) MTTLLNPYFGEFGGMYVPQILMPALRQLEEAFVSAQKDPEFQAQFNDLLKNYAGRPTALTKCQNITAGTNTTLYLKREDLLHGGAHKTNQVLGQALLAKRMGKTEIIAETGAGQHGVASALASALLGLKCRIYMGAKDVERQSPNVFRWRLMGAEVIPVHSGSATLKDACNEALRDWSGSYETAHYMLGTAAGPHPYPTIVREFQRMIGEETKAQILEREGRLPDAVIACVGGGSNAIGMFADFINETNVGLIGVEPGGHGIETGEHGAPLKHGRVGIYFGMKAPMMQTEDGQIEESYSISAGLDFPSVGPQHAYLNSTGRADYVSITDDEALEAFKTLCLHEGIIPALESSHALAHALKMMRENPDKEQLLVVNLSGRGDKDIFTVHDILKARGEI	0.53 ± 0.11	0.0239 ± 0.015
trpB M149Q (protein) MTTLLNPYFGEFGGMYVPQILMPALRQLEEAFVSAQKDPEFQAQFNDLLKNYAGRPTALTKCQNITAGTNTTLYLKREDLLHGGAHKTNQVLGQALLAKRMGKTEIIAETGAGQHGVASALASALLGLKCRIYMGAKDVERQSPNVFRQRLMGAEVIPVHSGSATLKDACNEALRDWSGSYETAHYMLGTAAGPHPYPTIVREFQRMIGEETKAQILEREGRLPDAVIACVGGGSNAIGMFADFINETNVGLIGVEPGGHGIETGEHGAPLKHGRVGIYFGMKAPMMQTEDGQIEESYSISAGLDFPSVGPQHAYLNSTGRADYVSITDDEALEAFKTLCLHEGIIPALESSHALAHALKMMRENPDKEQLLVVNLSGRGDKDIFTVHDILKARGEI	0.562 ± 0.069	0.037 ± 0.0058
trpB M149D (protein) MTTLLNPYFGEFGGMYVPQILMPALRQLEEAFVSAQKDPEFQAQFNDLLKNYAGRPTALTKCQNITAGTNTTLYLKREDLLHGGAHKTNQVLGQALLAKRMGKTEIIAETGAGQHGVASALASALLGLKCRIYMGAKDVERQSPNVFRDRLMGAEVIPVHSGSATLKDACNEALRDWSGSYETAHYMLGTAAGPHPYPTIVREFQRMIGEETKAQILEREGRLPDAVIACVGGGSNAIGMFADFINETNVGLIGVEPGGHGIETGEHGAPLKHGRVGIYFGMKAPMMQTEDGQIEESYSISAGLDFPSVGPQHAYLNSTGRADYVSITDDEALEAFKTLCLHEGIIPALESSHALAHALKMMRENPDKEQLLVVNLSGRGDKDIFTVHDILKARGEI	0.65 ± 0.12	–
trpB M149P (protein) MTTLLNPYFGEFGGMYVPQILMPALRQLEEAFVSAQKDPEFQAQFNDLLKNYAGRPTALTKCQNITAGTNTTLYLKREDLLHGGAHKTNQVLGQALLAKRMGKTEIIAETGAGQHGVASALASALLGLKCRIYMGAKDVERQSPNVFRPRLMGAEVIPVHSGSATLKDACNEALRDWSGSYETAHYMLGTAAGPHPYPTIVREFQRMIGEETKAQILEREGRLPDAVIACVGGGSNAIGMFADFINETNVGLIGVEPGGHGIETGEHGAPLKHGRVGIYFGMKAPMMQTEDGQIEESYSISAGLDFPSVGPQHAYLNSTGRADYVSITDDEALEAFKTLCLHEGIIPALESSHALAHALKMMRENPDKEQLLVVNLSGRGDKDIFTVHDILKARGEI	0.843 ± 0.056	0.0409 ± 0.027
